# Measured values taken from PubChem BioAssay AID493208 (National Center for Advancing Translational Sciences (NCATS), 2011).
# Out of some 44,000 compounds screened, about 340 (0.77%) were called active. Roughly 5% stayed inconclusive and do not appear here. The call rests on the fitted dose curve; in most records, active means well fitted inhibition curve with a large enough effect; inconclusive means small, poorly fitted or top-dose-only effect; inactive means flat fitted curve, though single readings scatter. This is one part of the list.
# Assay: Acumen qHTS Assay for Inhibitors of the mTORC1 Signaling Pathway in MEF (Tsc2-/-, p53-/-) Cells: Sytravon; further: nearly all actives have a fitted effect of over 50% in size;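 on activity change, negative = inhibition: plate controls were DMSO for no effect and rapamycin for full effect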
# Details: phospho-rpS6 immunofluorescence/PI, 24 h; series mostly up to 38.3 µM; activity change, negative = inhibition: at the top concentration
# In short: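 Tsc2-/-, p53-/- mouse embryonic fibroblasts (empty-vector line) exposed to compound 24 hrs at 37 C, fixed, immunostained for phospho-rpS6 and counterstained with propidium iodide. Acumen laser scanning gives % positive cells from Alexa 488/PI ratio, thresholded using 7.5 nM rapamycin; PI count gives viability.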
# Potency means the concentration at half of the fitted maximal effect.
Compound,"activity change, negative = inhibition",Potency
Nc1c(C(=O)Nc2ccccc2Br)sc2nc(-c3cccs3)ccc12,inactive: -24.6%,
O=C(CSc1nc2c([nH]c3ccccc32)c(=O)n1-c1ccccc1)Nc1ccc2c(c1)OCO2,inactive: -6.54%,
COc1ccc(-c2nc(Cn3c(=O)cc(C)c4c(C)nn(-c5ccccc5)c43)c(C)o2)cc1OC,inactive: -13.6%,
Cc1ccc(-n2nc(C)c3c(C)c(CCC(=O)NC(C)c4ccccc4)c(C)nc32)cc1 (configuration not stated),inactive: -5.76%,
Cc1ccc(NC(=O)Cn2c(=O)n(-c3ccc(C)cc3)c(=O)c3c2cnn3C)cc1,inactive: 0.398%,
Cc1ccc(Cc2nc3ccccc3nc2SCC(=O)N2CCC(C)CC2)cc1,inactive: 1.2%,
Cc1ccc(CNC(=O)c2ccc(CSc3nc4ccncc4n3Cc3ccc(C)cc3)cc2)cc1,inactive: 5.44%,
COc1cccc(C(=O)Nc2ccc3nc(SCC(=O)N(C)c4ccccc4)sc3c2)c1,inactive: -7.6%,
CCOc1ccc(NC(=O)c2c(C)oc3nc(C)nc(N4CCCC4)c23)cc1,inactive: 7.89%,
O=C(NCCc1ccc(Cl)cc1)C1CCN(Cc2cc3ccccc3n2Cc2ccccc2)CC1,inactive: -9.2%,
COc1ccc(CCNC(=O)CCc2cn(Cc3ccccc3Cl)c3ccccc23)c(OC)c1,inactive: -4.36%,
CCOc1ccc(-c2cc(NC(=O)c3ccccc3)c(C(=O)OC)s2)cc1,inactive: 1.17%,
COc1ccccc1CCNC(=O)c1cccn1-c1nnc(N2CCCC2)s1,inactive: 1.22%,
CCCN(C(=O)c1cc(S(=O)(=O)N2CCc3ccccc32)cn1C)c1ccc(OCC)cc1,inactive: 0%,
Cc1ccc(Cl)cc1N1CCN(c2ncnc3c2nc2n3CCCC2)CC1,inactive: 5.03%,
Cc1ccccc1NC(=O)C(=O)NCC(c1ccc2c(c1)OCO2)N1CCN(c2ccccc2)CC1 (configuration not stated),inactive: -14.1%,
COc1ccc(CNC(=O)Cn2c(=O)oc3cc(S(=O)(=O)NCc4ccccc4)ccc32)cc1,inactive: -13.2%,
CCOc1ccc(C2C(C(=O)Nc3ccccc3)=C(C)Nc3nc(-c4ccccc4Cl)nn32)cc1OC (configuration not stated),inactive: -5.25%,
CCOc1ccc(Nc2cc(C)nc3nncn23)cc1,inactive: 2.9%,
COc1ccc(NC(=O)c2cc3c(-c4ccccc4F)nn(C)c3s2)c(OC)c1,inactive: -0.063%,
Cc1ccccc1NC(=O)Cn1cc(S(=O)(=O)c2ccccc2)c(=O)c2ccccc21,inactive: -6.37%,
FC(F)(F)c1cccc(N2CCN(c3ncnc4c3nc3n4CCCC3)CC2)c1,inactive: 0.222%,
O=C(Cn1nc(C(F)(F)F)c2c1CCCC2)Nc1cccc(Cl)c1,inactive: -17.8%,
Cc1ccccc1OCC(=O)Nc1cccc(C(=O)OCc2cc(=O)n3c(C)csc3n2)c1,inactive: 3.85%,

Compound,"activity change, negative = inhibition",Potency
COC(=O)c1ccccc1NC(=O)c1cc2cc(C)ccc2n1C,inactive: -6.64%,
CCOc1ccc(-c2c(C)nn3c(C)c(C(=O)NCCc4ccc(Cl)cc4)cnc23)cc1OCC,inactive: 0%,
O=C(Cn1c(=O)n(-c2ccc(Cl)cc2)c(=O)c2sc3ccccc3c21)NC1CCCC1,inactive: 2.34%,
c1ccc(CN2CCN(c3ncnc4c3cnn4-c3ccccc3)CC2)cc1,inactive: 13.7%,
CCc1nc2cccnc2n1-c1ccc(CC(=O)Nc2cccc(C)c2C)cc1,inactive: -6.15%,
CCc1cccc(NC(=O)C2CCC(CNS(=O)(=O)c3ccc(Br)s3)CC2)c1 (configuration not stated),inactive: -18.3%,
Cc1ccc(NC(=O)c2cc(S(=O)(=O)N3CCc4ccccc43)cn2C)c(Cl)c1,inactive: -22.5%,
CCc1ccc(-n2nc(CO)c(C(=O)NCCCc3ccccc3)n2)cc1,inactive: 0.277%,
Cc1ccc(C)c(S(=O)(=O)c2nnn3c2nc(NC2CCCCC2)c2sccc23)c1,inactive: -16.5%,
Cc1ccccc1Cn1c2ccccc2c2cnn(CC(=O)NCc3ccccn3)c(=O)c21,inactive: 0.944%,
CCSc1ccccc1C(=O)Nc1ccc(-c2nc3ccccc3s2)c(O)c1,,active: 2930 nM
O=C(NCCc1ccccc1)C1CCC(CNS(=O)(=O)c2ccc(Cl)cc2)CC1 (configuration not stated),inactive: -1.67%,
Cc1ccc(C)c(N2CCN(C(=O)NCc3noc4ccc(C)cc34)CC2)c1,inactive: -9.74%,
CCOC(=O)c1cccc(NC(=O)C2Cc3ccccc3N2C(=O)c2ccccc2)c1 (configuration not stated),inactive: 0%,
CCOc1ccc(C(=O)NC2CC(=O)N(c3ccc(C)cc3)C2)cc1OCC (configuration not stated),inactive: 1.08%,
Cc1ccc(Nc2nc3ccccc3c3nncn23)c(Cl)c1,inactive: -1.75%,
Cc1ccc(-c2nc(NC(=O)CSc3nc(C)nc4sc5c(c34)CCCC5)ns2)cc1,inactive: 2.66%,
CC1CCN(S(=O)(=O)c2ccc3c(ccn3CCC(=O)NCc3ccccc3F)c2)CC1,inactive: -10.7%,
Cc1cccc(-n2ncc3c(Nc4ccc(C)c(Cl)c4)ncnc32)c1,inactive: -9.54%,
COc1ccc(NC(=O)c2c(-c3ccccc3)c(-c3ccccc3)nn(C)c2=O)cc1OC,inactive: -1.7%,
Cc1sc2c(c1C)c(=O)n(Cc1ccccc1)c(=O)n2Cc1ccc(F)cc1,inactive: -1.11%,
Cc1ccccc1CNC(=O)CN1C(=O)C2CCCCN2c2ccc(C(=O)N3CCCC3)cc21 (configuration not stated),inactive: -1%,
Cc1ccccc1NC(=O)CCS(=O)(=O)c1cc(Br)cc2c1N(C(=O)C1CC1)CC2,inactive: -2.65%,
